Data on 82 compounds can be found in ChEMBL document CHEMBL4888484, “Replenishing the malaria drug discovery pipeline: Screening and hit evaluation of the MMV Hit Generation Library 1 (HGL1) against asexual blood stage Plasmodium falciparum ,using a nano luciferase reporter read-out” (2022).

About 540 (0.36%) of roughly 150,000 compounds showed an effect of 50% or more. The list shows a part of the results.

The test concerns Plasmodium falciparum. Put plainly: Primary screen in NF54 nanoGlo assay, in single point, at 2uM, 72h; a lower Z score goes with more inhibition. It is filed as functional, Erythrocyte. The settings on record: timepoint 72 hour.
On to `Cn1ccnc1CNc1ncc(Cc2cccc(F)c2)s1`, for which the “% Inhibition” value is given as -9% and the Z score is 0.88.
The like results for `CC(C)Oc1cccnc1C(=O)N1CC(=O)N(C)c2ccccc21` were, in that order, 9% and -1.27.
The like results for `O=C(COc1ccc(CO)cc1)N1CC[C@@H]2CC[C@@]21c1cccnc1` were, in that order, -8% and 0.95.
In the same order, the values of `O=S1(=O)CC[C@H](CNc2cnc3cc(Cl)c(Cl)cc3n2)C1` are -5% and 0.47.
Consider `COc1cccc2c1OC[C@@H](C(=O)N1CCn3c(C)nnc3C1)C2`, for which the “% Inhibition” value was -10% and the Z score is listed as 1.64.
The like results for `COc1cccc(C[C@H](NC(=O)c2cn[nH]c2C)C2CC2)c1` were, in that order, 2% and -0.27.
The like results for `O=C1[C@@H]2[C@H](Cc3ccccc3)N[C@]3(C(=O)Nc4ccccc43)[C@@H]2C(=O)N1c1ccc2c(c1)OCO2` were, in that order, -8% and 1.09.
The like results for `Cc1ccc(C2=NN(C(=O)CN3CCN(c4ccccc4F)CC3)[C@H](c3ccccc3C)C2)c(C)c1` were, in that order, -19% and 1.79.
Consider `O=S1(=O)N(Cc2ccc(CO)cc2)c2ccccc2N1C1CC1`, for which the “% Inhibition” value was -1% and the Z score is 0.14.
Take `COCc1cn([C@H]2CCN(S(=O)(=O)c3c(Cl)cccc3Cl)C2)nn1`: the “% Inhibition” value is reported as -10% and the Z score amounted to 1.83.
In the same order, the values of `NC(=O)Cc1ccccc1OCc1coc(-c2c(F)cccc2F)n1` are -7% and 0.64.
The like results for `CCCN(Cc1cc(NC(=O)C2CCC2)ccc1N(C)C)C(=O)CC` were, in that order, -2% and 0.36.
The like results for `C[C@@H](Cn1cncn1)c1nc(COc2ccc(C(C)(C)C)cc2)n[nH]1` were, in that order, -10% and 1.23.
`CN(C)c1ccc(C(=O)NCCn2nc(C3CC3)ccc2=O)nn1`: the “% Inhibition” value worked out at 14% and the Z score is given as -1.83.
The like results for `NC(=O)Cc1ccc(NC(=O)c2ccc3[nH]ncc3c2)cc1` were, in that order, 0% and 0.02.
The like results for `CC1(C)OC(=O)C[C@@H]1C(=O)Nc1nc2c(s1)CCC2` were, in that order, 1% and -0.07.
In the same order, the values of `Cc1cccc(-c2noc(CN3CCC(=O)Nc4cc(F)ccc43)n2)c1` are 1% and -0.25.
As to `CC1CCCC(NC(=O)C2N(CCN(C)Cc3ccccc3)C(=O)[C@H]3C(C(=O)Nc4ccc(F)c(Cl)c4)[C@H]4C=C[C@@]23O4)C1C` (some centres undefined), the “% Inhibition” value is reported as -4% and the Z score was 0.56.
In the same order, the values of `Cc1ccc2sc(CN3CC(CC4COCC(=O)N4)c4ccccc43)nc2c1` (centres undefined) are -7% and 0.76.
In the same order, the values of `Cn1nncc1S(=O)(=O)NC[C@@H](CO)CC1CCCC1` are -11% and 1.54.
Turning to `Cc1ccccc1[C@@H](C)CC(=O)NCCCn1ccccc1=O`, the “% Inhibition” value is given as -11% and the Z score stood at 1.43.
Consider `CC(C)(C)N1C[C@@H](CNC(=O)C(=O)c2cccnc2)CC1=O`, for which the “% Inhibition” value is reported as -12% and the Z score is 2.32.
In the same order, the values of `Cc1nc(CCNC(=O)c2cn[nH]c2)nc2c1CCC2` are -4% and 0.63.
The like results for `CC(C)OC(=O)c1cc(NC(=O)[C@@H]2CCCO2)ccc1Cl` were, in that order, -5% and 0.71.
In the same order, the values of `Cc1cc2[nH]c(=O)cc(C)c2c(C)c1S(=O)(=O)N1CCCCC1` are -7% and 0.84.
For `O=C1O[C@@H]2C[C@H]3C[C@@H]2[C@@H]1[C@H]3C(=O)Nc1ccc(C(=O)N2CCCCC2)cc1`, the “% Inhibition” value was determined as 5% and the Z score is -0.53.
The like results for `CCOc1ccccc1C(=O)Nc1cnc2cc(C)nn2c1` were, in that order, -11% and 1.44.
In the same order, the values of `Oc1nc(Cc2ccccc2)nc2c1nnn2Cc1ccccc1` are 25% and -2.86.
In the same order, the values of `CCC(NC1CCC(=O)N(C)C1)c1ccccc1F` (centres undefined) are 0% and 0.03.
`Cc1nc(-n2cc(C(=O)[C@H](C)Oc3ccc(Cl)cc3)nn2)nc2c1CCCC2`: the “% Inhibition” value was 7% and the Z score was -0.99.
For the compound `O=C(Nc1ccc2[nH]c(-c3cccs3)nc2c1)c1cccs1`, the “% Inhibition” value was -12% and the Z score is recorded as 1.51.
On to `COc1ccc(-c2nc([C@H]3CC(=O)N(Cc4ccc(C)cc4)C3)[nH]c2C)cc1`, for which the “% Inhibition” value was -8% and the Z score is listed as 1.07.
The like results for `COCCC(C)(C)C(=O)N1CCC(c2nc(C(F)(F)F)c[nH]2)CC1` were, in that order, -6% and 1.03.
The like results for `CCN(CC)c1ncc(NS(=O)(=O)c2cc(C)ccc2C)cc1C(=O)O` were, in that order, -8% and 0.77.
In the same order, the values of `Cc1cncc(NC(=O)C(=O)N(CCc2cccc(F)c2)C2CC2)c1` are -8% and 1.48.
For the compound `O=C1CCN(C(=O)C(F)F)[C@H](c2ccccc2)C1`, the “% Inhibition” value came out at 15% and the Z score is reported as -1.84.
In the same order, the values of `COC(OC)C12c3ccccc3C(c3ccccc31)C1C(=O)N(c3ccccn3)C(=O)C12` (centres undefined) are -34% and 4.04.
In the same order, the values of `CC(=O)N(CCCNC(=O)c1cccc(Cl)c1)C(C)C` are 8% and -1.13.
The like results for `CCc1nc2cc(C(=O)O)cc(NC(=O)c3ccccc3OC)c2n1C` were, in that order, -11% and 1.24.
With `O=C(NCc1ccc(Nc2ccncc2)cc1)[C@H]1CCS(=O)(=O)C1`, the “% Inhibition” value is -15% and the Z score came out at 1.97.
The like results for `CCCNC(=O)Cn1ccc(-c2ccccc2)nc1=O` were, in that order, -13% and 1.82.
In the same order, the values of `Cc1cc(C(F)(F)F)nc(N2CC(c3ccnc(N)n3)C2)n1` are -22% and 2.79.
In the same order, the values of `C[C@H]1CNCCN1C(=O)c1ccnc(C2CC2)n1` are -2% and 0.22.
Take `Fc1ccc(/N=C2\NC3(CCCCC3)Cc3ccccc32)cc1F`: the “% Inhibition” value is reported as -33% and the Z score is 3.89.
As to `CN(C)S(=O)(=O)N1CCC(CNC(=O)c2ccc(Cl)s2)CC1`, the “% Inhibition” value is 5% and the Z score is -0.62.
The like results for `OC1CCN(CCNCc2cnc(-c3ccc4ccccc4c3)nc2)CC1` were, in that order, -5% and 0.97.
The like results for `CCCc1cnc(NC(=O)N[C@H](CO)Cc2c[nH]c3ccccc23)s1` were, in that order, 0% and -0.05.
In the same order, the values of `COc1ccc(C(=O)c2cnc3cc(Cl)ccc3c2-c2ccccc2)cc1` are -12% and 1.39.
With `Cc1noc(C)c1CNC(=O)N(C)Cc1c(C)noc1C`, the “% Inhibition” value is on record as -13% and the Z score stood at 2.41.
The like results for `Cc1cccc(OCC(=O)Nc2cc3ccccc3cc2NC(=O)COc2cccc(C)c2C)c1C` were, in that order, 4% and -0.57.
In the same order, the values of `COc1ccc(C(=O)N[C@H]2CO[C@H]3[C@@H]2OC[C@H]3OC(=O)Nc2ccc(C(C)C)cc2)cc1` are 4% and -0.65.
The like results for `CC(C)CN(C)C(=O)[C@H]1CCCN(C2CCN(Cc3ccncc3)CC2)C1` were, in that order, -8% and 1.52.
Regarding `CC(=O)c1ccc(N(C)C)cc1OCc1ccccc1F`, the “% Inhibition” value came to 10% and the Z score is -0.96.
In the same order, the values of `CCC(CC)NC(=O)N(Cc1ccc(OC)cc1OC)C1CCCC1` are -14% and 2.17.
The like results for `Cc1cc(C)nc(N2CC3CC2CO3)n1` (centres undefined) were, in that order, -13% and 1.6.
In the same order, the values of `CN(Cc1ccccc1)C1CCCN(CC(O)C(F)(F)F)CC1` (centres undefined) are -17% and 1.74.
In the case of `CCn1ncnc1-c1c(-c2ccccc2)ncn1Cc1ccc(CO)cc1`, the “% Inhibition” value was -14% and the Z score is listed as 1.54.
In the same order, the values of `CN1CC[C@H](NC(=O)N2CCC(Oc3cccc(C(F)(F)F)c3)CC2)C1=O` are -11% and 1.3.
`CCc1nc([C@H](C)NC(=O)Nc2ncn(C)n2)cs1`: the “% Inhibition” value is -4% and the Z score stood at 0.54.
In the same order, the values of `CCc1nc([C@H](C)NCc2nc(C3CC3)no2)cs1` are 0% and 0.08.
With `S=c1sc2ccccc2n1CN1CCc2ccccc2C1`, the “% Inhibition” value was -40% and the Z score is on record as 4.7.
The like results for `CO[C@@H](CNC(=O)NCCc1cnc2c(Cl)cnn2c1)C1CC1` were, in that order, -3% and 0.38.
The like results for `CNCCCNC(=O)c1ccc(Br)cc1C` were, in that order, 31% and -4.52.
With `O=C(Nc1cc(C2CCCC2)nn1-c1ccccc1)c1cccc(S(=O)(=O)N2CCOCC2)c1`, the “% Inhibition” value is -10% and the Z score is 1.17.
The like results for `COc1cccnc1CC(=O)Nc1nnc(C(C)C)s1` were, in that order, -15% and 1.44.
The like results for `CCCCN1C[C@]2(CCCN(S(=O)(=O)c3cnoc3C)C2)CCC1=O` were, in that order, -9% and 1.74.
In the same order, the values of `C[C@H]1CCN(C)c2ccccc2N1S(=O)(=O)c1cnc2c(c1)c(=O)[nH]c(=O)n2C` are 5% and -0.84.
Consider `O[C@]12CCCC[C@H]1CN(Cc1cccc(OCCCn3ccnc3)c1)CC2`, for which the “% Inhibition” value turned out to be 0% and the Z score is given as -0.06.
As for `CCNc1ncc(C(=O)Nc2c[nH]c(=O)c(C)c2)s1`, the “% Inhibition” value is on record as -16% and the Z score was 1.78.
The like results for `Cc1ccc(NC(=O)c2sc3ncnc(N(C)C4CCCCC4)c3c2C)cc1` were, in that order, -17% and 1.56.
In the same order, the values of `O=C(C1CC1C1CC1)N1CC2(CCCCC2)C1` (centres undefined) are -28% and 3.26.
With `O=C(COc1ccc2c(c1)OCO2)N1CCOC[C@@H](O)C1`, the “% Inhibition” value is -9% and the Z score is on record as 1.18.
The like results for `N#CC(c1ccccc1)C1CCCN1CC(=O)N1CCNC1=O` (centres undefined) were, in that order, -12% and 1.19.
The like results for `Cc1[nH]c(C(=O)N2CCN(c3ccc(Cl)cc3)CC2)c(C)c1S(=O)(=O)N1CCOCC1` were, in that order, -5% and 0.72.
The like results for `CCOC1(C)CN(C(=O)Nc2csc(C)n2)C1` were, in that order, 5% and -0.55.
As to `O=C(CN1CC[C@@]2(CCCNC2=O)C1)NCc1ccccc1`, the “% Inhibition” value was -1% and the Z score is listed as 0.19.
With `COCC(=O)N[C@@H]1CC[C@H]2CCOc3ccccc3C(=O)N3CCN(Cc4ccc(C#N)cc4)C[C@H]3C(=O)NC[C@H]1O2`, the “% Inhibition” value was -8% and the Z score came out at 1.05.
The like results for `Cc1ccc(C)c(C(=O)N[C@@H](C)c2nc(-c3cccnc3)cs2)c1` were, in that order, 0% and -0.01.
On to `COc1cccc(C2=NC3(CCN(C(=O)c4ccc5c(c4)OCO5)CC3)NC2=O)c1`, for which the “% Inhibition” value was -12% and the Z score is recorded as 1.53.
The like results for `CCCNC(=O)[C@@H]1COC2(CCN(C(=O)Cc3ccccc3)CC2)N1C(=O)c1ccc(OC)cc1` were, in that order, 3% and -0.37.
In the same order, the values of `Cc1nc(N2CCN(C)CC2)cc(N2CCN(C(=O)COc3ncccn3)CC2)n1` are -7% and 1.14.
On to `CN(C(=O)c1cccs1)c1ncnc2ccsc12`, for which the “% Inhibition” value is reported as -8% and the Z score was 1.23.
